# Reference: PubChem BioAssay AID686979 (National Center for Advancing Translational Sciences (NCATS), 2013)
# Hit rate of the full screen: of about 420,000 compounds, about 50,000 (12%) were called active. The inconclusive results got no clear call from the source; some entries with a clear call stand among them for comparison. Calls follow the shape of the dose curve; as a rule, active = well fitted inhibition curve with a large enough effect; inconclusive = small, poorly fitted or top-dose-only effect; inactive = flat fitted curve, though single readings scatter. Potencies of inconclusive entries are left out as doubtful fits.
# Assay: qHTS for Inhibitors of human tyrosyl-DNA phosphodiesterase 1 (TDP1): qHTS in cells in presence of CPT; also: nearly all actives have a fitted effect of over 55% in size
# Conditions: chicken DT40 Tdp1-/-;hTDP1 cells + 20 nM CPT, ATP luminescence, 48 h
# How it was run: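 Cell growth measured by CellTiter-Glo luminescence after a minimum 48 h, 37 C compound exposure with 20 nM CPT in Tdp1-knockout DT40 cells stably expressing hTDP1, seeded 400/well; qHTS titration format.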
# [1] = activity change, negative = growth inhibition: at 46.2 µM (top of the series)
# % is scaled to controls: 0 for no effect and ±100 for the full control effect; potency is read from the fitted curve at half-maximal effect; tags tell the direction and shape of the fitted curve.
compound,measurement,setting,value
Cc1nnc(SCC(=O)Nc2nsc(-c3ccccc3)n2)s1,Potency,[1],"inconclusive [inhibitor, single point]"
Cn1ccsc1=NC(=O)c1ccc(S(C)(=O)=O)cc1,Potency,[1],inactive
O=C(CSc1nnc(Nc2ccccc2)s1)Nc1ccc(S(=O)(=O)N2CCOCC2)cc1,Potency,[1],"inconclusive [inhibitor, single point]"
COc1cc(C2c3cc4c(cc3OC(NCCc3ccccc3)C2C)OCO4)cc(OC)c1OC (stereo not given),Potency,[1],active: 1.03 µM
COc1cc(CNC(=O)c2ccc3c(c2)c(C)c(C)n3Cc2cccc(C)c2)cc(OC)c1OC,Potency,[1],active: 18.4 µM
Cc1ccc(S(=O)(=O)c2nc(-c3ccccc3Cl)oc2NCCCN2CCOCC2)cc1,Potency,[1],"inconclusive [inhibitor, single point]"
CCOc1[nH]n(-c2ccc(Cl)cc2)c(=O)c1C=Nc1ccc(Cl)cc1,Potency,[1],"inconclusive [inhibitor, single point]"
Cc1cc(C)c(NC(=O)c2sc3nc4c(cc3c2N)C(=O)CC(C)(C)C4)c(C)c1,Potency,[1],"inconclusive [inhibitor, single point]"
CC(NC(=O)c1ccc(Cl)c(Cl)c1)c1ccc(-c2ccccc2)cc1 (stereo not given),Potency,[1],"inconclusive [inhibitor, single point]"
OC[C@@H]1CN(Cc2ccncc2)C[C@H](n2cnc3c(NCc4ccncc4)ncnc32)O1,Potency,[1],inactive
CCCCN(C)C(=O)CSc1nc2ccccc2nc1Cc1ccc(C)cc1,Potency,[1],"inconclusive [inhibitor, single point]"
Cc1ccc2[nH]c(=O)c3cc(C(=O)NC4CCC(C)CC4)sc3c2c1 (stereo not given),Potency,[1],inactive
Cc1cc(NCc2ccco2)nc2cc(O)ccc12,Potency,[1],"inconclusive [inhibitor, single point]"
CC1CCCCC1NC(=O)COC(=O)c1ccc(N(C)C)cc1 (stereo not given),Potency,[1],"inconclusive [inhibitor, single point]"
O=C(Nc1ccc(Nc2ccccc2)cc1)c1ccc(Br)cc1,Potency,[1],"inconclusive [inhibitor, single point]"
C[N+]1(C)CCC(=C(c2ccccc2)c2ccccc2)CC1,"activity change, negative = growth inhibition",[1],inconclusive: -30.4% [inhibitor]
same,"activity change, negative = growth inhibition",at 21.1 µM (top of the series),inactive: 3.98%
Cc1cc(C)c2c(c1)/C(=C/C(=O)c1ccc(Br)s1)C(=O)N2,Potency,[1],active: 4.61 µM
COc1ccc(C)c2sc(NC(=O)C3CC3)nc12,Potency,[1],inactive
C[C@@H]1CN([C@@H](C)CO)C(=O)CCCn2nncc2CO[C@H]1CN(C)Cc1cccnc1,Potency,[1],inactive
COc1ccc(S(=O)(=O)N2CCCCCC2)cc1NC(=O)CCCOc1ccccc1,Potency,[1],inactive
CCOC(=O)C(=NCC1CCCO1)NNc1cc(Cl)ccc1Cl (stereo not given),Potency,[1],inactive
COc1cc(/C=C/C(=O)O)ccc1O,Potency,[1],inactive
CCCCC1Cc2[nH]c(=S)[nH]c(=O)c2C(c2ccc3ccccc3c2)O1 (stereo not given),Potency,[1],"inconclusive [inhibitor, single point]"
O=[N+]([O-])c1ccccc1S(=O)(=O)NC1CCCC1,Potency,[1],inactive
O=C(Nc1ccc(Cl)cc1)c1ccc(-n2cccn2)c([N+](=O)[O-])c1,Potency,[1],active: 23.1 µM
Brc1ccc(-c2ccc(/C=N/Nc3nncc(-c4ccccc4)n3)o2)cc1,Potency,[1],"inconclusive [inhibitor, partial curve]"
COc1cccc(CNC(=O)c2nc(Cn3nc(C)c(Br)c3C)no2)c1,Potency,[1],inactive
Cc1ccc2oc(C(=O)N(Cc3sccc3C)C3CCS(=O)(=O)C3)c(C)c2c1 (stereo not given),Potency,[1],active: 5.8 µM
O=C(NCc1ccc(F)cc1)c1cc(S(=O)(=O)N2CCCCC2)ccc1Cl,Potency,[1],inactive
COc1ccccc1N1CCN(C(=O)CSc2ncnc3scc(-c4ccccc4)c23)CC1,Potency,[1],"inconclusive [inhibitor, single point]"
CN1C(c2ccc(F)cc2)=CS/C1=C(\C#N)c1nnc2n1-c1ccccc1SC2,Potency,[1],"inconclusive [inhibitor, single point]"
COc1ccc(-n2c(=O)c3c4c(sc3n(C)c2=O)CN(C(C)=O)CC4)cc1,Potency,[1],inactive
O=c1cc(-c2ccccc2)n2c(SCc3ccccc3Cl)nnc2[nH]1,Potency,[1],inactive
COc1ccc(-c2cc(C(=O)N/N=C/c3cc(OC)c(OC)cc3OC)c3ccccc3n2)cc1,Potency,[1],active: 10.3 µM
COC(=O)C(NC(=O)c1ccccc1C)(Nc1ncc(S(=O)(=O)c2ccc([N+](=O)[O-])cc2)s1)C(F)(F)F (stereo not given),Potency,[1],"inconclusive [inhibitor, single point]"
CCN(CC)c1ccc(/C=C/c2nccc3ccccc23)cc1,Potency,[1],"inconclusive [inhibitor, single point]"
O=C(CCn1cnnn1)N1CCCC(Nc2ccc(F)c(F)c2)C1 (stereo not given),Potency,[1],"inconclusive [inhibitor, single point]"
COc1ccc(NC(=O)Cc2nnc(SCC(=O)Nc3ccc(F)cc3)n2C)cc1,Potency,[1],inactive
CCNc1nc(C)c(CN(C(C)=O)c2ccccc2)nc1C#N,Potency,[1],inactive
O=C1C2(CCC13COC(c1ccc(O)cc1)OC3)COC(c1ccc(O)cc1)OC2 (stereo not given),Potency,[1],"inconclusive [inhibitor, partial curve]"
CN(C(=O)Cn1cccc1C1=NC(c2ccccc2)CO1)c1ccccc1 (stereo not given),Potency,[1],"inconclusive [inhibitor, single point]"
S=C1NC2=C(CCCC2=C2SCCCS2)C(c2ccccc2)N1 (stereo not given),Potency,[1],"inconclusive [inhibitor, single point]"
O=C(CN1C(=O)/C(=C/c2cccc(Br)c2)SC1=S)N1CCCC1,Potency,[1],active: 3.26 µM
COc1ccc(/C=N/NC(=O)c2cccnc2)cc1CN1CCOCC1,Potency,[1],inactive
COc1ccc(NC(=O)Cc2ccc(C)c(C)c2)cc1S(=O)(=O)N1CCCCC1,Potency,[1],"inconclusive [inhibitor, single point]"
CC(C)CC(C(=O)NC1CCCCC1)N(Cc1cccs1)C(=O)c1snc(C(N)=O)c1N (stereo not given),Potency,[1],"inconclusive [inhibitor, single point]"
COc1cc(CNCc2cccs2)ccc1OCC(=O)NC(C)(C)C,Potency,[1],inactive
CC(=O)Nc1nc(C2COc3ccccc3O2)cs1 (stereo not given),Potency,[1],inactive
CCOC(=O)N1CCN(C(=O)c2ccc3nc4ccc(Cl)cc4c(=O)n3c2)CC1,Potency,[1],"inconclusive [inhibitor, partial curve]"
CC(C)OCc1cc(CN2CCN(c3cccc(C(F)(F)F)c3)CC2)c(O)c2ncccc12,Potency,[1],active: 4.61 µM
O=C1NC[C@H](CCCCN2C[C@H](Cc3ccccc3)N(Cc3ccccc3)C(=O)C2=O)N(CC2CCCCC2)C1=O,Potency,[1],"inconclusive [inhibitor, single point]"
Cc1c(Cl)cccc1NC(=O)CSc1nc(=O)n(Cc2ccco2)c2c1CCC2,Potency,[1],active: 20.6 µM
Cc1cc(Nc2ccc(Br)cc2F)n2nc(C)nc2n1,Potency,[1],"inconclusive [inhibitor, single point]"
CN(C)c1ccc(CNC(=O)C2CCN(Cc3cc4ccccc4n3Cc3ccccc3)CC2)cc1,Potency,[1],active: 16.4 µM
COCCn1c(SCc2nnc(-c3ccccc3)o2)nc2sc3c(c2c1=O)CCC3,Potency,[1],"inconclusive [inhibitor, single point]"
CCOC(=O)C1C(=O)NC(SCC(=O)Nc2nccs2)=C(C#N)C1c1ccccc1OCC (stereo not given),Potency,[1],"inconclusive [inhibitor, single point]"
CCN(CC)S(=O)(=O)c1cc(C)c(C)cc1Br,Potency,[1],"inconclusive [inhibitor, single point]"
CCOC(=O)COc1ccc(/C=C2\NC(=S)N(CC)C2=O)cc1,Potency,[1],inactive
Cc1ccc(C)c(Sc2ccc(S(=O)(=O)Nc3ccc(C(=O)O)cc3)cc2)c1,Potency,[1],inactive
Cc1ccc(NC(=O)Cn2cccc2C2=NC(c3ccccc3)CO2)cc1C (stereo not given),Potency,[1],"inconclusive [inhibitor, partial curve, poor fit]"
COc1ccccc1NC(=O)CCCc1nc(-c2ccc(OC)c(OC)c2)no1,Potency,[1],"inconclusive [inhibitor, single point]"
CCCCN(Cc1ccccc1)S(=O)(=O)c1cc2c(cc1Br)CC(C)N2C(C)=O (stereo not given),Potency,[1],active: 18.4 µM
CCOC(=O)c1ccc(-c2ccc(/C=N/NC(=O)CN(c3ccccc3Br)S(C)(=O)=O)o2)cc1,Potency,[1],"inconclusive [inhibitor, single point]"
O=C(CC(=O)Nc1cccc(Cl)c1Cl)Nc1cccc(Cl)c1Cl,Potency,[1],inactive
CCn1c(C(=O)OC)cc2c1ccn2-c1ccc(F)cc1,Potency,[1],active: 18.4 µM
CCOC(=O)c1sc(N)c(C#N)c1COC(=O)CNC(=O)c1cc(OC)c(OC)c(OC)c1,Potency,[1],"inconclusive [inhibitor, single point]"
COc1cc(O)c(C(CCN2CCOCC2)c2ccc(N(C)C)cc2)c(OC)c1 (stereo not given),Potency,[1],active: 14.6 µM
CC(=O)Nc1cncc(-c2cnn(CC(C)C)c2)n1,Potency,[1],inactive
CCOc1ccc(N/C=C/C(=O)c2ccccc2)c([N+](=O)[O-])c1,Potency,[1],"inconclusive [inhibitor, single point]"
CCN(CC)C(=O)c1ccc(/C=C/c2c[nH]c3ccccc23)[n+](C)c1,Potency,[1],inactive
CCC(CO)NC(=O)c1ccccc1C(F)(F)F (stereo not given),Potency,[1],inactive
COc1ccc(NC(=O)COc2ccc(C)nc2[N+](=O)[O-])cc1S(N)(=O)=O,Potency,[1],active: 9.2 µM
OC[C@@H]1CN(Cc2ccc(Cl)cc2)C[C@H](n2cnc3c(NC4CCCC4)ncnc32)O1,Potency,[1],active: 20.6 µM
COc1cc(C(=O)OCC(C)=O)ccc1OCc1c(C)noc1C,Potency,[1],"inconclusive [inhibitor, partial curve]"
